# Measurements as given in PMC12040169 (PLOS Biology, 2025).
# The other results are listed elsewhere or left out.
# System: T1, C. trachomatis L2/434/Bu expressing GFP (CTL2-GFP)
# T1 construct: L2/434/Bu GFP intracellular growth in HeLa cells
# Design: species or system HeLa; C. trachomatis total inclusion area by high-content imaging, normalised to DMSO
# Conditions: total inclusion area; 28.5 h, 10 µM; inhibitor
# How it was run: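 Following bulk GFP and resorufin fluorescence reads, infected cells were fixed, Hoechst-stained and imaged on a high-content platform. Inclusion total area and number per well served as growth proxies; nuclei counts indicated host viability. MICs were derived as for the fluorescence assay.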
row,SMILES,% of control remaining
1,COCCn1c(=O)n(Cc2ccc(F)cc2)c2cccnc21 [CBK283886],79.3254
2,COc1ccc(C(=O)N2CCN(Cc3ccccc3)CC2)c(OC)n1 [CBK200169],106.843
3,COc1cccc(/C=N/NC(=O)C(=O)NCc2ccccn2)c1 [CBK262268],88.7444
4,COc1cccc(NC(=O)CC(CN2CCN(CCC#N)CC2)C(=O)O)c1 (centres unmarked) [CBK286801],94.6043
5,O=C(c1nccs1)C1CCN(C(=O)C2(c3ccccc3)CC2)CC1 [CBK284206],58.499
6,CC1=CC(C)C(C(=O)O)C(C(=O)NCc2cccnc2)C1 (centres unmarked) [CBK293964],95.1339
7,Fc1ccc(C2C=C(c3ccc(F)cc3F)Nc3ncnn32)cc1 (centres unmarked) [CBK288095],87.8
8,Cc1ccc(S(=O)(=O)NCc2ccc(-c3nn(C)cc3-c3ccncc3C)cc2)cc1 [CBK285632],93.023
9,O=C(O)CCc1ccc(NS(=O)(=O)c2ccc(N3CCCC3=O)cc2)cc1 [CBK299788],112.711
10,Cc1cc(Cl)ccc1Nc1nnc(C)c(=O)[nH]1 [CBK287922],91.6149
11,CC(C)CN1C[C@H]2N(C)C(=O)c3ccccc3C(=O)[C@@]2(C)C1 [CBK283477],88.9617
12,CCN(CC)CCN1CCN(c2cc(-c3cccc4ccccc34)ncn2)CC1 [CBK091196],139.526
13,CN(C)CC(C)(C)CNC=C1C(=O)CC(C)(C)CC1=O [CBK262046],108.352
14,OC(CSc1ccccc1)CN1CCC(Nc2nccc(C(F)(F)F)n2)CC1 (centres unmarked) [CBK074648],89.2362
15,CC(=O)OCc1nc2cc(F)c(F)cc2[nH]1 [CBK110117],103.66
16,O=C(c1cc(F)c(F)cc1F)N1CCC2(CCCN(C(=O)c3cccc4[nH]ccc34)C2)C1 (centres unmarked) [CBK131544],88.2255
17,CCOC(=O)c1cc2c3ccccc3n(CC)c2nc1N [CBK100822],101.514
18,CCCCN(C)c1c(CC)nc2ccc(C(=O)NCCN3CCCC3)cn12 [CBK145440],94.503
19,CC(=O)N1C[C@H]2CCCN(S(=O)(=O)c3cccs3)[C@H]2C1 [CBK285275],91.6777
20,CC(NC(=O)CCc1cnn(C)c1)c1nc(-c2ccncc2)cs1 (centres unmarked) [CBK305496],45.3368
21,Cc1cccn2c(CN3CCCC(O)C3)c(C(=O)N3CCCCC3)nc12 (centres unmarked) [CBK307342],65.319
22,Cc1ncccc1OC1(C(=O)NCc2n[nH]c3c2CCC3)CCNCC1 [CBK307057],62.068
23,O=C(Cc1ccsc1)N1CCC[C@@H]1Cn1c(=O)oc2ccccc21 [CBK284530],127.636
24,O=C(c1cncnc1)N1Cc2ccccc2C1 [CBK200223],66.9131
25,CN1CCN(C(=O)c2cnn(-c3ccccc3)c2NC(=O)c2ccc(F)cc2)CC1 [CBK265198],97.1388
26,Cc1c(C(=O)N2CCNCC2C)nnn1-c1ccc2ncccc2c1 (centres unmarked) [CBK304473],52.3081
27,O=C(C1CCN(S(=O)(=O)c2ccc(F)cc2)C1)N1CCN(C2CCCC2)CC1 (centres unmarked) [CBK285703],93.4804

row,SMILES,% of control remaining
1,O=C(O)C1Nc2ccc(Oc3ccccc3)cc2C2C=CCC12 (centres unmarked) [CBK286542],79.8854
2,CNC(=O)C1(Cc2ccccc2-c2ccccc2)CCN(C(=O)c2cccc(OC)c2)CC1 [CBK285922],120.96
3,COCCCn1c(SCc2csc(-c3ccc(C)cc3)n2)n[nH]c1=O [CBK295657],42.2015
4,O=c1cc(CN2CCC(Oc3nccnc3OCc3ccc(Cl)c(Cl)c3)CC2)[nH]c(=O)[nH]1 [CBK153784],84.1189
5,CCNC(=O)COc1ccc(C=Cc2nc(-c3ccccc3)c(C(=O)O)s2)cc1OCC [CBK296644],67.4258
6,CC(Sc1nc2ccc(Cl)cc2o1)C(=O)N1CCOCC1 (centres unmarked) [CBK305164],52.166
7,CCCn1c(C)nnc1CN(CC1CCCO1)C1CCCC1 (centres unmarked) [CBK304465],73.7208
8,COCc1cc(C)nc(SCC(=O)O)c1C#N [CBK270463],96.811
9,Cc1nn(C)cc1CN(Cc1ccccc1)CC1CCCO1 (centres unmarked) [CBK283264],114.178
10,O=C(Cc1ccsc1)N1CCC2(CCCNC2)C1 (centres unmarked) [CBK137153C],97.6344
11,CCn1c(CNC(=O)c2cc(C(C)C)on2)nc2ccccc21 [CBK281393],91.3668
12,COc1ccc(Cn2nnnc2C(CC(C)C)N2CCC(C(N)=O)CC2)cc1 (centres unmarked) [CBK084783],100.914
13,CCN(Cc1ncc[nH]1)[C@H]1CCO[C@@H](c2ccccc2-c2ccc(OC)cc2)C1 [CBK285842],113.25
14,O=C(O)c1ccc(N2C(=O)CC(c3ccccc3)CC2=O)cc1 [CBK291169],119.218
15,CC(NC(=O)c1cnc(-c2ccc(Cl)cc2)c(-c2ccc(O)cc2)c1)c1ccc(F)cc1 (centres unmarked) [CBK036751],112.953
16,CC(NC(=O)C1CCN(Cc2cccnc2)CC1)c1ccc(F)cc1 (centres unmarked) [CBK148032],97.5874
17,O=S(=O)(/C=C/c1ccccc1)Nc1cccc2[nH]ccc12 [CBK155772],101.869
18,Cc1ccc(S(=O)(=O)N2CCN(C(=O)c3ccco3)CC2)cc1 [CBK068166],101.551
19,COc1ccc(-c2cc(CC3(NCc4ccccc4O)COC3)no2)cc1 [CBK289697],109.775
20,COc1ccc(-c2nc3cc(NC(=O)c4ccccc4Br)ccc3o2)cc1 [CBK264953],106.292
21,Cc1cccc(C2(O)CCN(CC(O)c3ccc(F)cc3)CC2)c1 (centres unmarked) [CBK282504],97.7291
22,O=C(NCc1ccc(Cl)cc1)N(Cc1cccnc1)Cc1ccc2c(c1)OCO2 [CBK159449],92.2095
23,CCN(CC)C(=O)c1sc2ncccc2c1NS(=O)(=O)c1c(C)noc1C [CBK050617],72.2322
24,Cn1ccc(C(=O)N2CCCC(c3cc4ncccc4[nH]3)C2)n1 (centres unmarked) [CBK283412],107.927
25,O=C(Cn1cnc2c(cnn2-c2ccc(F)cc2)c1=O)NCc1ccccc1 [CBK287538],116.304
26,Cc1nc(C2CCN(C(=O)CCc3ccno3)CC2)c2sccn12 [CBK282239],121.03
27,CCN(Cc1cn2ccc(C)cc2n1)CC1CCOCC1 [CBK306680],53.7135

row,SMILES,% of control remaining
1,CC(=O)Nc1ccc(C(=O)N2CCCC(c3cccc(Cc4ccccc4Cl)n3)C2)cc1 (centres unmarked) [CBK286126],92.59
2,[N-]=[N+]=NC1C2OCC(O2)C(OCc2ccccc2)C1O (centres unmarked) [CBK261000],105.848
3,CC(=O)Nc1ccc(S(=O)(=O)N2CCN(C(=O)c3ccco3)CC2)cc1 [CBK068319],97.0172
4,COC(=O)c1c(NC(=O)Cn2ccc([N+](=O)[O-])n2)sc2c1CCCC2 [CBK268960],122.709
5,CCNc1cccnc1N1CCN(CCc2cc(C)c(O)c(C)c2)CC1 [CBK024361C],67.8693
6,c1ccc(CCN2CCN(c3nccnc3OCC3COc4ccccc4O3)CC2)cc1 (centres unmarked) [CBK082794T],73.5226
7,O=c1[nH]nc2cc(SCc3ccc(Cl)cc3)ncn12 [CBK300540],132.321
8,CN1CCN(C(c2cccs2)c2nnnn2C(C)(C)C)CC1 (centres unmarked) [CBK141702],79.7378
9,COc1ccc(N(C(C)C(=O)Nc2ccc(Cl)c(Cl)c2)S(C)(=O)=O)cc1 (centres unmarked) [CBK266872],106.258
10,OCC1(CNc2ncc(F)c(N3CCCC3)n2)CCOCC1 [CBK306647],29.6376
11,Cc1cccc(NC(=S)N/N=C/c2sccc2C)c1 [CBK022228],60.3135
12,Cc1cc(C)cc(NC(=O)Cc2cc(=O)[nH]c(SCc3ccccc3)n2)c1 [CBK287842],98.6688
13,Cc1nc(CC(=O)N2CCOC(c3ccc(F)cc3)C2)cs1 (centres unmarked) [CBK305759],78.1346
14,O=S(=O)(NCCc1ccccc1)c1cccc2nsnc12 [CBK261128],100.921
15,CC[C@H](C)[C@H](NC(N)=O)C(=O)Nc1ccc(F)c([N+](=O)[O-])c1 [CBK297489],86.7823
16,CCC(=O)N1CCC(c2nc(Cc3cccs3)no2)C1 (centres unmarked) [CBK282968],87.1261
17,Cc1c(C(=O)N2CCCC(c3cnccn3)C2)oc2c(F)cccc12 (centres unmarked) [CBK285302],80.8281
18,Cc1cc(CCCC(=O)NCc2ccc(-c3ccc(C(N)=O)c(C)n3)cc2)ccc1F [CBK286016],114.583
19,CC(CN1CCOCC1)NS(=O)(=O)c1cccc(C(=O)N2CCCC2)c1 (centres unmarked) [CBK307053],36.7748
20,CCn1c(SCc2cc(Cl)c3c(c2)OCCO3)nnc1-c1ccc(OC)cc1 [CBK297086],99.7815
21,O=C(O)c1ccc(/C=N/NC(=O)c2ccco2)cc1 [CBK263569],93.459
22,CCOC(=O)C1CCCN(CCC(=O)Nc2cc(C)cc(C)c2)C1 (centres unmarked) [CBK264284],96.0821
23,Cc1noc(C)c1S(=O)(=O)NCC(=O)N1CCOCC1 [CBK034476],86.8488
24,CSc1nc(NC(=O)c2cc(-c3ccccc3)oc2C)cc(N2CCNCC2)n1 [CBK050364T],82.4644
25,CC(CC(=O)NC(c1ccc(F)cc1)c1nccn1C)n1cccn1 (centres unmarked) [CBK281454],104.473
26,NS(=O)(=O)c1ccc(NS(=O)(=O)c2ccc(NC(=O)Nc3ccc(Cl)cc3)cc2)cc1 [CBK264902],92.7079
